# Reference: PubChem BioAssay AID720708 (National Center for Advancing Translational Sciences (NCATS), 2013)
# The campaign covered roughly 360,000 compounds. About 660 (0.18%) were called active. This list was built around the results that the source calls inconclusive (neither active nor inactive); the mix of calls is not that of the screen. The call rests on the fitted dose curve; in most records, active means well fitted inhibition curve with a large enough effect; inconclusive means small, poorly fitted or top-dose-only effect; inactive means no such curve, though single readings can be large or run the other way. Potencies of inconclusive entries are left out as doubtful fits.
# Biological target: Rap guanine nucleotide exchange factor 4 (Homo sapiens) (UniProt Q8WZA2)
# UniProt Q8WZA2, sequence (Q8WZA2 whole entry, looked up): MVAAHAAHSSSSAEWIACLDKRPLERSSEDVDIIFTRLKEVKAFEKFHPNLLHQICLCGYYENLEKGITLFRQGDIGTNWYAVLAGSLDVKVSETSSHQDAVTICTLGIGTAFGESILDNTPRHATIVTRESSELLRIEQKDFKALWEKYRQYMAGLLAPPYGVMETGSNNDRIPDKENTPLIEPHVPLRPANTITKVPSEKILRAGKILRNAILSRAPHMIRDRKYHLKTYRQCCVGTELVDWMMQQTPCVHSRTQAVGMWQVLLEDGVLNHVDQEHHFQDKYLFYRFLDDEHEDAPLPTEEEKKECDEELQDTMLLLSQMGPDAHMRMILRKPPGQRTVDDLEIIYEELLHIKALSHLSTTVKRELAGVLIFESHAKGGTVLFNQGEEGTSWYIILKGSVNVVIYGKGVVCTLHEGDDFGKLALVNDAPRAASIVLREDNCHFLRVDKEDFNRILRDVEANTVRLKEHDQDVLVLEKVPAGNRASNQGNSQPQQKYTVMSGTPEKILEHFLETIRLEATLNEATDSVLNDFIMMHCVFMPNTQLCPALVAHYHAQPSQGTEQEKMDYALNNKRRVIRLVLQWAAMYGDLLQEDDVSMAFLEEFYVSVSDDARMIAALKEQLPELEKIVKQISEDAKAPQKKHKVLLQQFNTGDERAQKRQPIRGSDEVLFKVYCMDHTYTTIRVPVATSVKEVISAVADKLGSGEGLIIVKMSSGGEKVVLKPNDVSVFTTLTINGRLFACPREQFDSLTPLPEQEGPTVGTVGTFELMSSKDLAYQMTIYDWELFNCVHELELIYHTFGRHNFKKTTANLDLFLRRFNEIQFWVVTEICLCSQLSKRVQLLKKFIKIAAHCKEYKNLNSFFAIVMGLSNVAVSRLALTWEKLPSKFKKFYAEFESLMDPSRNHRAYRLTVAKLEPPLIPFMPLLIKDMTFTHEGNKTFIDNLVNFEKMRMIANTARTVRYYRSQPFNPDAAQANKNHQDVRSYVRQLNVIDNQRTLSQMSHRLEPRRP
# Test: qHTS for Antagonist of cAMP-regulated guanine nucleotide exchange factor 2 (EPAC2): primary screen; further: nearly all actives have a fitted effect of over 45% in size
# Details: EPAC2 GEF exchange of Rap1B-BODIPY-GDP, fluorescence; activity, negative = inhibition: at 114 µM (top of the series) unless noted
# Source text: In multi-cellular eukaryotic organisms, the effects of cAMP are transduced by two ubiquitously-expressed intracellular cAMP receptors, the classic protein kinase A/cAMP-dependent protein kinase (PKA/cAPK) and the more recently discovered exchange protein directly activated by cAMP/cAMP-regulated guanine nucleotide exchange factor (EPAC/cAMP-GEF). Both PKA and EPAC are ubiquitously expressed in all tissues, and an increase in intracellular cAMP levels will lead to the activation of both PKA and EPAC. Therefore, careful dissections of the individual role and relative contribution of EPAC and PKA within the overall cAMP signaling in various model systems are critical for further elucidating the mechanism of cAMP signaling. To date no EPAC-specific antagonists and agonist, as well as isoform-specific agonists have been reported, and developing EPAC-specific pharmacological probes to determine the physiological functions that EPAC play in the overall cAMP-mediated signaling remains a major challenge within the research field. Furthermore, identified regulators of EPAC may lead to new mechanism-based therapeutic strategies specifically targeting the EPAC / cAMP-signaling components as EPAC has been implicated to play important roles in major human pathological conditions such as diabetes, heart disease, and cancer.
# This qHTS will be used to screen the Molecular Libraries Small Molecule Repository (MLSMR) as a concentration-titration series using the NCGC unique quantitative screening (qHTS) platform to find inhibitors for EPAC2. In addition, this assay will also be used as a counterscreen for the EPAC1 qHTS. This fluorescent based assay is developed and validated for EPAC2 that measures exchange using EPAC effector Rap1 complex with BODIPY-GDP, a GDP analog with a tethered fluorophores. Inhibitors are identified by monitoring the change in fluorescence signal as the exchanged free BODIPY-GDP has a reduced fluorescence compared to Rap1-bound BODIPY-GDP. Decrease in signal (inhibition) is the desired outcome for the EPAC2 antagonist while no activity in this assay is desired for the EPAC1 antagonist counterscreen.
# NIH Chemical Genomics Center [NCGC]
# NIH Molecular Libraries Probe Centers Network [MLPCN]
# Assay Submitter (PI): Xiaodong Cheng, The University of Texas, Medical Branch
# Briefly, three uL of reagents (100 nM EPAC2, 250 nM RAP1B-BODIPY-GDP, 50 uM GDP) were dispensed into a 1536-well Greiner black solid-bottom medium binding assay plate. Controls and test compounds (23 nL) were transferred to the plate via a Kalypsys pin tool equipped with a 1536-pin array. The plates were centrifuged at 1,000 rpm for 15 seconds followed by 5 minute incubation at room temperature. The assay plates were read at 5 minute intervals for 30 minutes in the ViewLux plate reader using 480nm excitation and 540nm emission filters. The results were normalized to the agonist positive control ATA and DMSO.
# On the % scale 0 is the no-effect control and ±100 the full control effect; potency means the concentration at half of the fitted maximal effect; tags describe the fitted curve by direction and shape.
SMILES,Potency,"activity, negative = inhibition"
CC(=O)N1c2ccccc2N2C(c3c(C)c(C)cc(C)c3C)=NON12,"inconclusive [inhibitor, partial curve]",–
O=C(C(=Cc1ccccc1)c1ccccc1)c1ccccc1,"inconclusive [inhibitor, partial curve]",–
COc1ccc(CCc2ccnc3ccccc23)cc1,"inconclusive [inhibitor, partial curve]",–
NS(=O)(=O)c1cccc(C(=O)NC2CCSc3ccccc32)c1 (stereo not given),inactive,–
c1ccc(OCCCn2ccnc2)cc1,"inconclusive [inhibitor, partial curve]",–
COc1ccc(C(CC(=O)N2CCCC(C)C2)c2c(O)cc(OC)cc2OC)cc1 (stereo not given),"inconclusive [inhibitor, partial curve]",–
CCCOc1ccc(C(=O)OCC(=O)NCCc2ccc(OCC)c(OCC)c2)cc1OC,"inconclusive [inhibitor, single point]",–
CCOc1ccc2c(c1)C(C)=CC(C)(C)N2S(=O)(=O)c1ccc(NC(C)=O)cc1,"inconclusive [inhibitor, full curve]",–
COc1cccc(C(C)(O)c2nc(-c3cccs3)cs2)c1 (stereo not given),"inconclusive [inhibitor, partial curve]",–
N/C(=N\OC(=O)/C=C/c1ccccc1Cl)c1cccnc1,inactive,–
Cc1ccc(C)c(NC(=O)CCNS(=O)(=O)c2ccc3[nH]c(=O)oc3c2)c1,inactive,–
CC(=O)Nc1ccc(NC(=O)c2ccccc2-n2cnnn2)cc1,inactive,–
CC(C)N1CC2(CC(c3ccccc3C(F)(F)F)=NO2)CN1C(=O)c1ccco1 (stereo not given),"inconclusive [inhibitor, partial curve]",–
O=c1oc2cc(Br)ccc2n1Cc1ccccc1,"inconclusive [inhibitor, single point]",–
O=C(COC(=O)[C@@H]1CC(O)CN1S(=O)(=O)c1ccc(Cl)c(Cl)c1)NC(=O)NCc1ccccc1 (stereo not given in full),"inconclusive [inhibitor, partial curve]",–
COc1ccc2ccc(C(C)(C(C)=O)C(=O)OC(C)C)cc2c1 (stereo not given),"inconclusive [inhibitor, full curve]",–
CC(C)(C)NC(=O)C(c1cccs1)N(Cc1ccco1)C(=O)c1csnn1 (stereo not given),"inconclusive [inhibitor, full curve, poor fit]",–
O=C(NC1CCOc2ccccc21)c1ccc(=O)[nH]c1 (stereo not given),"inconclusive [inhibitor, single point]",–
CCCC(O)(CCN1CCCCC1)c1ccc(OCC)cc1 (stereo not given),–,inconclusive: -16.5% [inhibitor]
COc1ccccc1NC(=O)CCC(=O)O,inactive,–
O=C(NCc1ccccc1)c1cc(C2CCCCN2C(=O)c2ccc3c(c2)CCO3)on1 (stereo not given),"inconclusive [inhibitor, partial curve]",–
O=C(O)c1cc2cc(F)ccc2[nH]1,inactive,–
COc1cccc(CN(C)C(=O)CNC(=O)c2ccc(-c3ccccc3)cc2)c1OC,"inconclusive [inhibitor, single point]",–
O=[N+]([O-])c1cc(-c2n(-c3ccccn3)c3ccccc3[n+]2-c2ccccn2)ccc1Cl,"inconclusive [inhibitor, partial curve]",–

SMILES,Potency,"activity, negative = inhibition"
Cc1ccc(N2C(=O)CC(Sc3ccccc3C(=O)O)C2=O)cc1C (stereo not given),"inconclusive [inhibitor, single point]",–
C#CCNC(=O)C[C@@H]1C[C@@]2(C(=O)OCC)CCCC=C2N(CCCCCCCC)C1=O,"inconclusive [inhibitor, partial curve]",–
CC(C)(C)c1cc(C(F)(F)F)n2ncc(-c3ccccc3)c2n1,"inconclusive [inhibitor, full curve]",–
O=C(CSc1nc2ccccc2n1CC(=O)N1CCCCC1)N1CCCCC1,inactive,–
Cn1c(SCC(=O)Nc2ccc3nc(SCC(=O)N4CCCC4)sc3c2)nnc1-c1ccccc1,inactive,–
Cc1cc(C)nc(SCC(=O)c2ccc(C)c(C)c2)n1,"inconclusive [inhibitor, partial curve]",–
Cc1ccccc1N1C(S)=C(C#N)C(=O)NC12CCCCC2,inactive,–
Cc1noc(NS(=O)(=O)c2ccc(NC(=O)c3cc(S(=O)(=O)N(C)c4ccccc4)ccc3Cl)cc2)c1C,"inconclusive [inhibitor, partial curve]",–
O=C(CN(Cc1ccco1)Cc1cccs1)N1CCN(S(=O)(=O)c2cccc(F)c2)CC1,"inconclusive [inhibitor, partial curve]",–
O=C(NCCc1ccccc1)c1cccc(NC(=O)C2CCCC2)c1,inactive,–
C=CCC(NC(=O)c1ccc(C#N)cc1)C(=O)NCCC (stereo not given),"inconclusive [inhibitor, full curve]",–
Oc1c(C(Nc2nccs2)c2ccc(C(F)(F)F)cc2)ccc2cccnc12 (stereo not given),"inconclusive [inhibitor, full curve]",–
Cc1ccc(NC(=O)CN2CCN(Cc3ccccc3)CC2)c(Br)c1,inactive,–
Cc1onc(-c2c(Cl)cccc2Cl)c1COC(=O)c1ccc(Cl)cc1[N+](=O)[O-],"inconclusive [inhibitor, partial curve]",–
CCN(CC)c1ccc2c(C)c(Cl)c(=O)oc2c1,"inconclusive [inhibitor, partial curve, poor fit]",–
O=S1(=O)[C@H]2CC3O[C@]2(C[C@@H]3c2ccc(F)cc2)CN1Cc1ccc(Cl)cc1,"inconclusive [inhibitor, single point]",–
O=C(NC1CC1)c1ccc(CSCc2ccccc2Cl)o1,"inconclusive [inhibitor, partial curve]",–
CCOc1nc(C)cc(C)c1S(=O)(=O)c1cccc(Cl)c1,"inconclusive [inhibitor, partial curve]",–
O=[N+]([O-])c1cc([N+](=O)[O-])c2oc(-c3ccccc3)c(Br)c2c1O,active: 20 µM,–
NC(=O)C1CCN(C2=C(NS(=O)(=O)c3ccc(Cl)cc3)C(=O)c3ccccc3C2=O)CC1,inactive,–
CCN1/C(=C2/SC(=S)N(NC(C)=O)C2=O)Sc2ccc(OC)cc21,"inconclusive [inhibitor, single point]",–
CCOC(=O)CSc1nc2sc3c(c2c(=O)n1-c1ccc(C)cc1)CCN(C)C3,"inconclusive [inhibitor, partial curve]",–
Cc1ccc(C)c(NC(=S)Nc2ncccc2C)c1,"inconclusive [inhibitor, partial curve]",–
O=C1C2CC=C(Cl)CC2C(=O)N1CCc1ccccc1 (stereo not given),inactive,–

SMILES,Potency,"activity, negative = inhibition"
Cc1ccc(OCCNC(=O)c2cccc(S(=O)(=O)NCc3ccccc3)c2)cc1,"inconclusive [inhibitor, single point]",–
O=C(N/N=C/c1ccncc1)c1cc([N+](=O)[O-])cc([N+](=O)[O-])c1O,inactive,–
O=C(OCc1cn([C@H]2C[C@H](c3ccc(Cl)cc3)N(C(=O)C3CCCCC3)C[C@@H]2O)nn1)c1ccccc1,inactive,–
CC1(Cc2cc(Cl)ccc2C(F)(F)F)C(=O)Nc2c(Cl)cccc21 (stereo not given),"inconclusive [inhibitor, full curve]",–
COc1cccc(CN2CCN(C3CCN(c4cccc(C)c4C)CC3)CC2CCO)c1 (stereo not given),inactive,–
Cc1cc(NC(=O)CSc2sc3c(O)cc(=O)[nH]c3c2C#N)ccc1Br,"inconclusive [inhibitor, single point]",–
N#CC1=C2SCN(Cc3ccco3)CN2C(=O)CC1c1c(F)cccc1Cl (stereo not given),"inconclusive [inhibitor, partial curve]",–
CCOC(=O)C1=C(Cc2ccc(Cl)cc2)C(=O)c2ccccc2C1=O,inactive,–
O=c1oc(-c2ccc(O)c(O)c2)cc2cc(O)cc(O)c12,"inconclusive [inhibitor, partial curve]",–
O=C1c2cccc3cccc(c23)C(=O)N1CCCSc1ncn[nH]1,inactive,–
CCN(CC)c1ccc2nc3ccc(N)cc3[n+](-c3ccccc3)c2c1,"inconclusive [inhibitor, partial curve]",–
Cc1ccc(S(=O)(=O)NC(=O)COc2ccccc2C)c(C)c1,"inconclusive [inhibitor, single point]",–
CCCOc1ccccc1Cn1c(=O)oc2ccc(C)cc21,"inconclusive [inhibitor, full curve]",–
COC(=O)CCNC(=O)Cc1c(C)n(C(=O)c2ccc(Cl)cc2)c2ccc(OC)cc12,"inconclusive [inhibitor, full curve, poor fit]",–
COc1ccc(CCN(C)C2CCCN(C(=O)Cn3cccn3)C2)cc1OC (stereo not given),"inconclusive [inhibitor, single point]",–
COc1cccc(C(=O)C2CCCN(C/C=C/c3ccccc3OC)C2)c1 (stereo not given),inactive,–
CCC(C)c1ccc(OCC(=O)Nc2cccc(C(=O)Nc3ccc(C(=O)O)cc3)c2)cc1 (stereo not given),"inconclusive [inhibitor, full curve]",–
O=C(CN1C(=O)c2ccccc2S1(=O)=O)NCCSCc1ccccc1Cl,inactive,–
O=C(/C=C/c1ccc2ccccc2c1)c1ccoc1,inactive,–
CCOc1ccc(C(=O)CCC(=O)N2CCN(S(=O)(=O)c3cccc(F)c3)CC2)cc1,"inconclusive [inhibitor, single point]",–
O=C(CSc1ncccc1C(=O)O)c1ccc2ccccc2c1,inactive,–
CNc1ccc(/C=C(\C#N)C(=O)Nc2ccccn2)cc1[N+](=O)[O-],"inconclusive [inhibitor, partial curve]",–
